Source: the RNAGym collection of RNA variant scans (doi:10.1073/pnas.2313332121)
Variants at the floor of the assay are shown more often than the library holds them.

B1: TPR 5TU (parent)
chain: GGAUCUUCUCGAUCUAACAAAAAAGACAAAUCUGCCACAAAGCUUGAGAGCAUCUUCGGAUGCAGAGGCGGCAGCCUUCGGUGGCGCGAUAGCGCCAACGUUCUCAACUAUGACACGCAAAACGCGUGCUCCGUUGAAUGGAGUUUAUCAUG

Variants of: B1
Assay: polymerase ribozyme fitness, log enrichment relative to wild type (log ratio); higher = more active; in vitro selection for triplet polymerase activity
Method in brief: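 A single round of triplicate in vitro selection, including frozen incubation at −7 °C, was applied to PCR-built, transcribed mutant libraries of each subunit of a heterodimeric triplet polymerase ribozyme. Illumina sequencing of input and output libraries retained genotypes with ≥10 input reads and ≥1 read per output. Fitness is the base-2 logarithm of genotype enrichment divided by wild-type enrichment, from inverse-variance-weighted replicate averages.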

Variant | polymerase ribozyme fitness (log ratio)
GGAUCUUCUCGAUCUAACAAAAAAGACAAAUCUGCCACAAAGCUUGAGAACAUUUUCGGAUGCAGAGGCGGCAGACUUCGGUGGCGCGAUAGCGCCAACGUUCUCAUCUAUGACACGCAAAACGCGUGCUCCGUUGAAUGGAGUUUCUCAUG [G50A C54U C75A A107U A147C] | ≤ -4.2
GGAUCUUCUCGAUCUAACAAAAAAGACAAAUCUGCCACAAAGCUUGAGAACAUUUUCGGAUGCAGAGGCGGCAGCCUUCGGUGGUGCGAUAGCGCCAACGUUCUCAACUAUCACGCGCAAAUCGCGUGCUCCCUUGAAUGGAGUUUAUCAUG [G50A C54U C85U G112C A115G A122U G133C] | ≤ -4.2
GGAUCUUCUCGAUCUAACAAAAAAGACAAAUCUGCCACAAAGCUUGAGAACAUUUUCGGAUGCAGAGGCGGCAGCCUUCAGGGGCGCAAUAAGGCCAACGUUCUCAACUAUGACACGCAAAACGCGUGCUCCGUUGAAUGGAGUAUAUCAUG [G50A C54U G80A U82G G88A G92A C93G U145A] | ≤ -4.2
GGAUCUUCUCGAUCUAACAAAAAAGACAAAUCUGCCACAAAGCUUGAGAACAUUUACGGAUGCAGAGGCAGCAGCCUUCGGUGGCGGGAAAGCGGCAACGUUCUCAACGAUGAGACGCAAAACGCGUGCUCCGUUGAAUGUAGUUUAUCAUG [G50A C54U U56A G70A C87G U90A C95G U109G C114G G141U] | ≤ -4.2
GGAUCUUCUCGAUCUAACAAAAAAGACAAAUCUGCCACAAAGCUUGAGAACAUUUUCGGAUGCAGAGGCGGCAGCCCUCGGUGGCACGAUUGCGCCAACGUUCUCAACUAUGACACGCAAAACGCGUGCUCCGUUGAAUGGAGUUUAUCAUG [G50A C54U U77C G86A A91U] | ≤ -4.2
GGAUCUUCUCGAUCUAACAAAAAAGACAAAUCUGCCACAAAGCUUGAGAACAUUUUCGGAUGCAGAGGCGGCAGCCUUCGGUGGCGCGAUAGCGCCAACGUUCCCAACUAUGACACGCAAAACUCGUGCUCCAUUAAAUGGAGUUUAUCAUG [G50A C54U U104C G124U G133A G136A] | ≤ -4.2
GGAUCUUCUCGAUCUAACAAAAAAGACAAAUCUGCCACAAAGCUUGAGAACAUCUUAGGAUGCAGAGGCGGCAGCCUUCGGUGGAGCGAUCGCGCCACCGUUCUCAACUAUGACACGCAAAACGCGUGCUCCGUUGAAUGGAGUUCAUCAUG [G50A C57A C85A A91C A98C U146C] | ≤ -4.2
GGAUCUUCUCGAUCUAACAAAAAAGACAAAUCUGCCACAAAGCUUGAGAACAUCUUAGGAUGCAGAGGCGGCAGCCUUCGGUGGCGCAAUAGCGCCAACGUUCUCAACUAUGACACGCACAACGCGUGCUCCGUGGAAUGGAGGUUAUCAUG [G50A C57A G88A A120C U135G U144G] | ≤ -4.2
GGAUCUUCUCGAUCUAACAAAAAAGACAAAUCUGCCACAAAGCUUGAGAACAUCUUAGGAUGCAGAGGCGGCAGCCUUCGGUGGCGCGAUAGCGCCAACGUUCUCAACUAUGACACGCAAAACGCGAGCUCCGUUGAAUGGAUUUUAUCAUG [G50A C57A U127A G143U] | -4.04
GGAUCUUCUCGAUCUAACAAAAAAGACAAAUCUGCCACAAAGCUUGAGAACAUCUUGGGUUGCAGAGUCGGCAGCCUUCGGUGGCGAGAUAGCGCCAACGUUCUCAACUAUGACACGCAAAACGCGUGCUCCGUGGAAUGGAGUUUAUCAUG [G50A C57G A60U G68U C87A U135G] | ≤ -4.2
GGAUCUUCUCGAUCUAACAAAAAAGACAAAUCUGCCACAAAGCUUGAGAACAUCUUGGGAUGCAGAGGCGGCAGCCUUCGGUGGCGCGAUAGCGCCAACGUUCUCAACUAUGACAAGCAAAACGCGUUCUCCGUUGAAUGGAGUUGAUCAUG [G50A C57G C116A G128U U146G] | ≤ -4.2
GGAUCUUCUCGAUCUAACAAAAAAGACAAAUCUGCCACAAAGCUUGAGAACAUCUUUGGAUGCAGCGGCGGCAGCCUUCGGUGGCGCGAUAGCGCCAACGUUCUCUACUAUGACACGUAAAACGCGUGCUCCGUUGAAUGGAGUUUAUCAUG [G50A C57U A66C A106U C118U] | ≤ -4.2
GGAUCUUCUCGAUCUAACAAAAAAGACAAAUCUGCCACAAAGCUUGAGAACAUCUUUGGAUGCAGAGGCGGCGGCCUUCGGUGUCGCGAUAGCGCCAACGUUCGCAACUAUGACACGCAAAACGCGUGCUCCGUUGAAUGGAGUUUAUCAUG [G50A C57U A73G G84U U104G] | ≤ -4.2
GGAUCUUCUCGAUCUAACAAAAAAGACAAAUCUGCCACAAAGCUUGAGAACAUCUUUGGAUGCAGAGGCGGCAGCCUUCGGUGGCGCGAUAGAGCCAACGUUCUCAACGAUGACACGCAAAACGCGUGCUCCGAUGAAAGGAGUUUAUCAUG [G50A C57U C93A U109G U134A U139A] | ≤ -4.2
GGAUCUUCUCGAUCUAACAAAAAAGACAAAUCUGCCACAAAGCUUGAGAACAUCUUUGGAUGCAGAGGCAGCAGCCUUUGGUGUCGCGAUAGCGCCAACGUGCUCAACUAUGACACGCAAAACGCGUGCUCCAUUGAAUGGAGUUUAUCAUG [G50A C57U G70A C79U G84U U102G G133A] | ≤ -4.2
GGAUCUUCUCGAUCUAACAAAAAAGACAAAUCUGCCACAAAGCUUGAGAACAUCUUCGGAUGCAGAGGCGGCAGGCUUCGGUGGCGCGAUAGCGCCAACGUUCUCAACUAUGACACGCAGAACGCGUGCUCCGAUGAGUGGAGUUUAACAUG [G50A C75G A120G U134A A138G U148A] | ≤ -4.2
GGAUCUUCUCGAUCUAACAAAAAAGACAAAUCUGCCACAAAGCUUGAGAACAUCUUCGGAUGCAGAGGCGGCAGUCUUCGGUGGCGUGAUAGCGCCAACGUUGUCAACUAUGACACGCCAAACGCGUGCUCCGUUGAAUGGAGUUUAUCAUG [G50A C75U C87U C103G A119C] | ≤ -4.2
GGAUCUUCUCGAUCUAACAAAAAAGACAAAUCUGCCACAAAGCUUGAGAACAUCUUCGGAUGCAGAGGCGGCAGUCUUCGGUUGCGCGAUAGUGCCAACGUUCUCAACUAUGACACGCAAAACGCGUGCUCCGUUGAAUGAAGUUUAUCAUG [G50A C75U G83U C93U G141A] | ≤ -4.2
GGAUCUUCUCGAUCUAACAAAAAAGACAAAUCUGCCACAAAGCUUGAGAACAUCUUCGGAUGCAGAGGCGGCAGCGUUCGGUGGCGCGAUAGCGCCAACGUUCUCAACUAUGACACGCAAAACGCGUGCUCCGUUGAAUGGAGUUUAUCAUG [G50A C76G] | ≤ -4.2
